First the molecules themselves.
B1: LINE1-mini (parent)
chain: GGCAGAGCUCAACACAGCGUGGCAAAGUGGCUGUGGCUAGACUGCC

Read counts are not given, so values of variants with three or more changes are uncertain.

The variants in the series derive from B1. Nature of the series: self-cleavage, relative activity (ratio to wild type); higher = more cleavage; in vitro, sequencing; the parent is a self-cleaving ribozyme.
Consider G7C A16U U28C A41U, for which the self-cleavage was 0.13.

Consider G7C A16G G19C A26U C46G, for which the self-cleavage was determined as 0.03. On to G7A C42U G44C, for which the self-cleavage was 0.01. Then G7A C8G A11G, with 0.03; and G7A C31A U32G G35U, with 0.02; and G7A C10G G19A, with 0. The result for G7A C10A A14G C18U U28C C46G reads 0.02; that for G7A A11U A12C G17A G27A G35A, 0.01. The result for G7A U20C G21C reads 0.05; that for G7A A11U A25C G40U, 0.01; that for G7C C31U G33C G40U, 0.07. Regarding A6U G22U A25U U28G G35C G36U, the self-cleavage was 0.18. Then G7C A16G A25U, with 0.01; and G7A C10A A39C, with 0.02. The result for G7A C18U A24G U32G A41C C45G reads 0.01; that for A6U U9G C23G A26G, 0.08; that for G7C G19C G22C G44U C46U, 0.34. Then G7A C15G G21U A25G G40C, with 0.11; and G7C A26U A39G U43G, with 0; and G7A A12C G21C, with 0.02.

With A6U U9G G22C C23G C37U, the self-cleavage was determined as 0.03. Then G7C C15U A26U, with 0.02. Then G7A C8U G17U, with 0.14. Then G7A A12G G22U G29C A39G, with 0.01; and G7C A26C C31U A39U, with 0.02. As for G7A A11U G21A G36U G44U, the self-cleavage worked out at 0.03. Then G7A A11U A12U A16U C18G, with 0.01; and G7C C13U A26G, with 0. G7A A16G C18G: the self-cleavage was found to be 0.28. For G7A A24G A25G G29A G33U, the self-cleavage came out at 0.02. As for G7A C13G G36C A39U U43C, the self-cleavage came out at 0.11. Then G7A G22C G29A, with 0.1; and G7C A24G U28C G35U, with 0.5; and G7A C13A A14U C18A, with 0.01. The result for G7A G19U C23U reads 0.05; that for G7A U20G G27A, 0.02; that for G7C C13U U20C U34C G40C C46A, 0.02. The result for G7C A11C A16U reads 0.01. With G7C A14U C23A G35C, the self-cleavage worked out at 0.11. The result for G7A G30A C37A A39C reads 0.19; that for A6U U32C A41C, 0.04; that for G7A G40A C46A, 0.34. The result for G7A A12C C15A G22U A41C reads 0.03; that for G7C C13U A24U G30C U32G G40C G44A, 0.03.

On to G7A C13G G22C C31G, for which the self-cleavage was 0.05. Then G7C G17C G35C C37U, with 0.02; and G7A G19A G21A, with 1.01. With G7A C10G C46U, the self-cleavage came out at 0. In the case of G7C C13G G21A G30C, the self-cleavage amounted to 0.41. Then G7C G19U G35A C37U, with 0.03; and G7C C10U C45G, with 0.04. The result for A6U G29U G30U reads 0.54; that for G7A A12U C23A A24C C46U, 0.02.

As to G7C G17U G44U C45G, the self-cleavage was 0.02. Regarding G7A C10A A12C G40A, the self-cleavage turned out to be 0.01. Then G7A C13A G21U, with 0.2. The result for G7C A12U C23G G27U U43G G44U reads 0.05; that for A6U G30U G33A, 0.03.

For G7A G17A G36A U38G, the self-cleavage stood at 0. In the case of G7C C8A G19A A24C A26U U28G G29U C42G U43A, the self-cleavage stood at 0.07.

G7A A12G C18A G36C U38C: the self-cleavage came to 0.01.

With G7A G17U C46A, the self-cleavage came to 0.08. The result for G7A A16C G21C U32C C42U reads 0.03; that for G7C A11G G29C, 0.02. The result for G7A A25U A26C G29U G30C reads 0.17. On to G7A C23U C45A, for which the self-cleavage was 0.21.

In the case of G7C C10G A14C U34G G44U, the self-cleavage was 0. The result for G7A C10G C31A reads 0.24; that for G7A A11U G19A G33U, 0.03. The result for G7A C8U G17A C45U reads 0.19; that for G7C A24U G27C G30A C31A G44A, 0.23. The result for G7A G35A C45A reads 0.01; that for G7A G19C G33A, 0.1. Take G7C C13G U38C C45G: the self-cleavage is 0.05. The result for G7A U34C C37A reads 0.15; that for A6U U9A U20C, 0.03. In the case of G7A U32A C37U, the self-cleavage amounted to 0.05.

For the variant G7C C15A G21A A39C, the self-cleavage came to 0.15. Then G7C A14G G19C, with 0.04; and G7C C15A C42G, with 0.03; and A6U U28G G36C C37U, with 0.03.

With A6U U38A C45G, the self-cleavage stood at 0.19. With G7A G21A G22A G29C G40A, the self-cleavage worked out at 0.01.

Regarding G7A G27C A41C C46U, the self-cleavage is 0.08.

As to G7C A12U C15U C18A G33C G36C U43C C46A, the self-cleavage was found to be 0.01.

As to G7C G19U G30U, the self-cleavage came to 0.12. For G7A A12C A24C C31A A41C C42G, the self-cleavage was found to be 0.09.

Regarding G7C C8G A12G U20A, the self-cleavage is 0.09. Regarding G7A C10A G22C C37A, the self-cleavage was 0.01. Then G7C C10A G27C G30U U34C, with 0.02; and G7A C10G G35C G40U, with 0.02; and G7A C23U G30U, with 0.1. The result for G7A C8U U9G C10G C18U G22A G30A reads 0.01; that for G7A G35U U43A, 0.19. A6U G27U G36U A39C G40U: the self-cleavage worked out at 0.25. Then A6U U9G A25U, with 0.02; and G7A G27A U43A, with 0.06. The result for G7A C31G C42G reads 0.03; that for G7C A11U A14C G17C G22C G44U, 0.01; that for G7C C23U A24C, 0.08. Consider G7A G33U A39G C46A, for which the self-cleavage came out at 0.07. The result for G7C A12G G21C U34A reads 0.01; that for G7C C10G U20C G44C, 0.02.

In the case of G7A U34C U38G, the self-cleavage was 0.01. G7A U34C G35C: the self-cleavage came to 0.01. Then G7C C8U G21A A26U, with 0.19; and A6U U38C A39C, with 0.41. Then G7A C15U A41G, with 0.53.

G7C C13U A41G: the self-cleavage worked out at 0.03. The result for G7A G29C C31U G40U reads 0.15. For the variant G7A C15G U20G, the self-cleavage was determined as 0.09.

In the case of G7A C15G G27C, the self-cleavage was found to be 0.03. The result for G7A G21U G36A C37A U43C reads 0.48; that for G7A C18G G27A C42G, 0.02; that for G7A C23G G29A U32G C42G, 0.03. As to G7C G19A U20A G22U C45A, the self-cleavage came out at 0.06.

Turning to G7A C10A G17A G22U G40C U43C, the self-cleavage was found to be 0.02. The result for G7C A14U C18A U32G G33C U38A reads 0.04. The result for G7C C18U G36C reads 0.2; that for G7A C23G C37A G44A, 0.53. Take G7C C13G U20G U32C C42A: the self-cleavage was 0.02. The result for A6U U9C U34C reads 0.04.

Consider G7A G30C C37U, for which the self-cleavage turned out to be 0.14. The result for G7A A11G A12C G19C reads 0.01; that for G7C A12U A14G G36C, 0.06; that for G7A C13G U20A G22A C45U C46G, 0.37. The result for A6U G27A U34G G36A U38C reads 0.03.

Take G7A C8A C23G U32G C42G: the self-cleavage stood at 0.26. Regarding G7C C15U C18A G19U, the self-cleavage turned out to be 0.02. On to A6U U9C U32G U43A C45U, for which the self-cleavage worked out at 0.03. Then G7A C8U C18U G21U U34A, with 0.05; and G7C C10A A39G, with 0.01. The result for A6U U20C G35U C37G reads 0.01; that for G7C G19U U32G, 0.05; that for G7C C31A U32G C42A C45U, 0.01. Then G7A C8A A11C, with 0.04. As to G7A G29U C42A, the self-cleavage was 0.04.

On to G7A G19C C23G A39C, for which the self-cleavage came out at 0.04.

In the case of G7A A25U A39C, the self-cleavage is 0.1. Turning to A6U U20A G22A G33A C37U, the self-cleavage came out at 0.03. The result for G7C A14G A16G G17A reads 0; that for G7C A14U G22C G35C, 0.06; that for G7C G17A C46G, 0.05. Then G7C C8A U9C A16G G27C G30U C31A, with 0.07; and G7A C8G U9G, with 0.04; and G7A A11U C18U U28C U34G C46U, with 0.02. The result for G7A C8U C18G G22A G40C C46A reads 0.14; that for G7A U9G G17A A25G U28A, 0.1; that for G7A G33C A39U, 0.01. As to G7A G30U G35U C37A, the self-cleavage came out at 0. The result for G7A G17U G35A A39C reads 0.1. Then G7A C8A C10U C13G G21A A39C, with 0.12; and G7A A16U G33U, with 0.11. The result for G7A A39U G40C reads 0.22. Turning to G7A G22A A39G, the self-cleavage amounted to 0.05. Take G7A A25C G33U G40A: the self-cleavage came to 0.04. The result for G7C A14G A41U reads 0.18. Then G7C C8U A16U C23U G27C, with 0.38. As to A6U G33U C46U, the self-cleavage is 0.14. Then G7A G17C C37U, with 0.19. Then G7C C13A G19U A26U G40U U43G, with 0.04; and G7A G17A G19C A41U, with 0.03. The result for G7A C23G C37A U43C reads 0.12. As for G7A A14U C15A G21U A26C, the self-cleavage came to 0.08.

Consider G7C C13A A14U G33A C45U, for which the self-cleavage is 0.2.

On to G7A C8A C13G C18U, for which the self-cleavage was 0.32. The result for G7A C10A C15G U28A reads 0.01.

The values above are taken from the RNAGym collection of RNA variant scans (doi:10.7554/elife.90254).
